# The supplement of paper PMC8728848
# The list shows a part of the results.
# Assays:
# Assay in all cases: glycan array binding signal (z-score within array); higher = stronger binding
# Details in all cases: glycan notation: IUPAC condensed, linker removed; mutation: E41G
# [1] = target: Fuc(a1-2)[Gal(a1-3)]Gal(b1-4)GlcNAc(b1-2)Man(a1-3)[Fuc(a1-2)[Gal(a1-3)]Gal(b1-4)GlcNAc(b1-2)Man(a1-6)]Man(b1-4)GlcNAc(b1-4)GlcNAc
# Summary of the method: (§1)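 Glycan array data were curated from 3228 arrays in the Consortium for Functional Glycomics database and kept only where the protein sequence was available. Glycan names were converted to IUPAC-condensed notation, and columns mapping to the same glycan were averaged. The binding signal is a within-array Z-score, averaged across arrays of the same protein sequence at different concentrations or buffers and across linkers. Negative Z-scores can be read as non-binding.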
# [2] = target: Fuc(a1-2)[Gal(a1-3)]Gal(b1-4)GlcNAc(b1-2)Man(a1-3)[Fuc(a1-2)[Gal(a1-3)]Gal(b1-4)GlcNAc(b1-2)Man(a1-6)]Man(b1-4)GlcNAc(b1-4)[Fuc(a1-6)]GlcNAc
# Summary of the method: as §1
# [3] = target: Fuc(a1-2)[Gal(a1-3)]Gal(b1-4)GlcNAc(b1-3)GalNAc
# Summary of the method: as §1
# [4] = target: Fuc(a1-2)[Gal(a1-3)]Gal(b1-4)GlcNAc(b1-3)[Fuc(a1-2)[Gal(a1-3)]Gal(b1-4)GlcNAc(b1-6)]GalNAc
# Summary of the method: as §1
# [5] = target: Fuc(a1-2)[Gal(a1-3)]Gal(b1-4)GlcNAc(b1-6)GalNAc
# Summary of the method: as §1
# [6] = target: Fuc(a1-2)[Gal(a1-3)]Gal(b1-4)[Fuc(a1-3)]Glc
# Summary of the method: as §1
# [7] = target: Fuc(a1-2)[Gal(a1-3)]Gal(b1-4)[Fuc(a1-3)]GlcNAc
# Summary of the method: as §1
# [8] = target: Fuc(a1-2)[Gal(a1-3)]Gal(b1-4)[Fuc(a1-3)]GlcNAc(b1-3)GalNAc
# Summary of the method: as §1
# [9] = target: Fuc(a1-2)[Gal(a1-4)]Gal(b1-4)GlcNAc
# Summary of the method: as §1
# [10] = target: Fuc(a1-2)[GalNAc(a1-3)]Gal
# Summary of the method: as §1
# [11] = target: Fuc(a1-2)[GalNAc(a1-3)]Gal(b1-3)GalNAc(a1-3)[Fuc(a1-2)]Gal(b1-4)GlcNAc
# Summary of the method: as §1
# [12] = target: Fuc(a1-2)[GalNAc(a1-3)]Gal(b1-3)GalNAc(b1-3)Gal(a1-4)Gal(b1-4)Glc
# Summary of the method: as §1
# [13] = target: Fuc(a1-2)[GalNAc(a1-3)]Gal(b1-3)GlcNAc
# Summary of the method: as §1
# [14] = target: Fuc(a1-2)[GalNAc(a1-3)]Gal(b1-3)GlcNAc(b1-2)Man(a1-3)[Fuc(a1-2)[GalNAc(a1-3)]Gal(b1-3)GlcNAc(b1-2)Man(a1-6)]Man(b1-4)GlcNAc(b1-4)GlcNAc
# Summary of the method: as §1
# [15] = target: Fuc(a1-2)[GalNAc(a1-3)]Gal(b1-3)GlcNAc(b1-2)Man(a1-3)[Fuc(a1-2)[GalNAc(a1-3)]Gal(b1-3)GlcNAc(b1-2)Man(a1-6)]Man(b1-4)GlcNAc(b1-4)[Fuc(a1-6)]GlcNAc
# Summary of the method: as §1
# [16] = target: Fuc(a1-2)[GalNAc(a1-3)]Gal(b1-3)GlcNAc(b1-3)GalNAc
# Summary of the method: as §1
# [17] = target: Fuc(a1-2)[GalNAc(a1-3)]Gal(b1-3)GlcNAc(b1-6)GalNAc
# Summary of the method: as §1
# [18] = target: Fuc(a1-2)[GalNAc(a1-3)]Gal(b1-4)Glc
# Summary of the method: as §1
# [19] = target: Fuc(a1-2)[GalNAc(a1-3)]Gal(b1-4)GlcNAc
# Summary of the method: as §1
# [20] = target: Fuc(a1-2)[GalNAc(a1-3)]Gal(b1-4)GlcNAc(b1-2)Man
# Summary of the method: as §1
# [21] = target: Fuc(a1-2)[GalNAc(a1-3)]Gal(b1-4)GlcNAc(b1-2)Man(a1-3)[Fuc(a1-2)[GalNAc(a1-3)]Gal(b1-4)GlcNAc(b1-2)Man(a1-6)]Man(b1-4)GlcNAc(b1-4)GlcNAc
# Summary of the method: as §1
# [22] = target: Fuc(a1-2)[GalNAc(a1-3)]Gal(b1-4)GlcNAc(b1-2)Man(a1-3)[Fuc(a1-2)[GalNAc(a1-3)]Gal(b1-4)GlcNAc(b1-2)Man(a1-6)]Man(b1-4)GlcNAc(b1-4)[Fuc(a1-6)]GlcNAc
# Summary of the method: as §1
# [23] = target: Fuc(a1-2)[GalNAc(a1-3)]Gal(b1-4)GlcNAc(b1-3)Gal(b1-4)GlcNAc
# Summary of the method: as §1
# [24] = target: Fuc(a1-2)[GalNAc(a1-3)]Gal(b1-4)GlcNAc(b1-3)Gal(b1-4)GlcNAc(b1-3)Gal(b1-4)GlcNAc
# Summary of the method: as §1
# [25] = target: Fuc(a1-2)[GalNAc(a1-3)]Gal(b1-4)GlcNAc(b1-3)GalNAc
# Summary of the method: as §1
# [26] = target: Fuc(a1-2)[GalNAc(a1-3)]Gal(b1-4)GlcNAc(b1-3)[Fuc(a1-2)[GalNAc(a1-3)]Gal(b1-4)GlcNAc(b1-6)]GalNAc
# Summary of the method: as §1
# [27] = target: Fuc(a1-2)[GalNAc(a1-3)]Gal(b1-4)GlcNAc(b1-6)GalNAc
# Summary of the method: as §1
# [28] = target: Fuc(a1-2)[GalNAc(a1-3)]Gal(b1-4)[Fuc(a1-3)]GlcNAc
# Summary of the method: as §1
# [29] = target: Fuc(a1-2)[GalNAc(a1-3)]Gal(b1-4)[Fuc(a1-3)]GlcNAc(b1-3)GalNAc
# Summary of the method: as §1
# [30] = target: Fuc(a1-2)[GalNAc(a1-4)]Gal(b1-4)GlcNAc
# Summary of the method: as §1
binder,measurement,setting,value
CVN-E41G (protein) MHHHHHHENLYFQSGNFSQACYNSAIQGSVLTSTCIRTNGGYNTSSIDLNSVIGNVDGSLKWQGSNFIETCRNTQLAGSSELAAECKTRAQQFVSTKINLDDHIAAIDGTLKYE,glycan array binding signal (z-score),[1],-0.122
same,glycan array binding signal (z-score),[2],0.41
same,glycan array binding signal (z-score),[3],-0.189
same,glycan array binding signal (z-score),[4],-0.096
same,glycan array binding signal (z-score),[5],-0.154
same,glycan array binding signal (z-score),[6],-0.157
same,glycan array binding signal (z-score),[7],-0.151
same,glycan array binding signal (z-score),[8],-0.159
same,glycan array binding signal (z-score),[9],-0.185
same,glycan array binding signal (z-score),[10],-0.173
same,glycan array binding signal (z-score),[11],-0.16
same,glycan array binding signal (z-score),[12],-0.158
same,glycan array binding signal (z-score),[13],-0.147
same,glycan array binding signal (z-score),[14],-0.059
same,glycan array binding signal (z-score),[15],0.532
same,glycan array binding signal (z-score),[16],-0.119
same,glycan array binding signal (z-score),[17],-0.162
same,glycan array binding signal (z-score),[18],-0.186
same,glycan array binding signal (z-score),[19],-0.166
same,glycan array binding signal (z-score),[20],-0.154
same,glycan array binding signal (z-score),[21],-0.013
same,glycan array binding signal (z-score),[22],0.483
same,glycan array binding signal (z-score),[23],-0.139
same,glycan array binding signal (z-score),[24],-0.163
same,glycan array binding signal (z-score),[25],-0.161
same,glycan array binding signal (z-score),[26],-0.167
same,glycan array binding signal (z-score),[27],-0.179
same,glycan array binding signal (z-score),[28],-0.121
same,glycan array binding signal (z-score),[29],-0.142
same,glycan array binding signal (z-score),[30],-0.166
